Experimental data reported in PubChem BioAssay AID485281 (National Center for Advancing Translational Sciences (NCATS), 2010).
About 260 (0.074%) of roughly 350,000 compounds were called active. This list was built around the results that the source calls inconclusive (neither active nor inactive); the mix of calls is not that of the screen. The call rests on the fitted dose curve; in most records, active means well fitted inhibition curve with a large enough effect; inconclusive means small, poorly fitted or top-dose-only effect; inactive means no such curve, though single readings can be large or run the other way. A potency beside an inconclusive call is a rough fit, not a confirmed value.

These molecules were tested against Ferritin light chain (Equus caballus) (UniProt P02791) (assay: qHTS Assay for Identification of Novel General Anesthetics). Details: apoferritin/1-aminoanthracene competitive binding, fluorescence; activity change, negative = displacement: at 77.5 µM (top of the series).
Summary of the method: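 10 uM apoferritin + 50% sat. 1-AMA, PBS; cpd 10 min RT; Ex380/Em535 endpoint; normalized to free probe vs complex; 4-param Hill fit; propofol titration as pos. ctrl.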
Further: nearly all actives have a fitted effect of over 20% in size.
On the % scale 0 is the no-effect control and ±100 the full control effect; potency means the concentration at half of the fitted maximal effect; tags describe the fitted curve by direction and shape.

Chain of UniProt P02791 (P02791 whole entry, looked up): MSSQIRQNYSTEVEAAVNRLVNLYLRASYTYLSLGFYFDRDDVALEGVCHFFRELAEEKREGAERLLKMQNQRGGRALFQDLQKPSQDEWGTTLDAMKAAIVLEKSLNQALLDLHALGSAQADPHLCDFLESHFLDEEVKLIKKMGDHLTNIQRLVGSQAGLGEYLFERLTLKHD

How did the Potency turn out when O=[N+]([O-])/C=C/c1cn(Cc2ccccc2)c2ccccc12 was run?
Its Potency is inconclusive: 7.08 µM [inhibitor, full curve, poor fit].

For Cc1cccc(-c2nn(C(=S)Nc3ccccc3)cc2-c2ccnc3ccccc23)n1, which “activity change, negative = displacement” value is on record?
Its value is inactive: -4.32%.

Which Potency does the source give for Cc1nn(C)c(Sc2ccccc2N)c1[N+](=O)[O-] here?
Its Potency is inconclusive: 31.6 µM [inhibitor, partial curve].

How did the “activity change, negative = displacement” value turn out when CS(=O)(=O)c1[nH]nc(-c2cccc(Cl)c2)c1C#N was run?
The value was inactive: -5.28%.

Which Potency does the source give for CS(=O)(=O)Nc1ccc(C(=O)CC(=O)Nc2ccc([N+](=O)[O-])cc2)cc1 here?
The Potency was inconclusive: 31.6 µM [inhibitor, partial curve].

For Cc1occc1C(=O)N1CCCC(Nc2ccc(C(C)C)cc2)C1 (stereo not given), which Potency is on record?
Its Potency is inconclusive: 39.8 µM [inhibitor, single point].

Which Potency does the source give for CC(C)c1ccc(NC(=O)C2CC3CCC2C3)cc1 (stereo not given) here?
The Potency was inconclusive: 17.8 µM [inhibitor, partial curve].

For COc1ccc2c(c1[N+](=O)[O-])CCC/C2=N/OC(=O)c1cccc2ccccc12, which Potency is on record?
The Potency was inconclusive: 39.8 µM [inhibitor, partial curve].

O=C(CN1CCCC1)Nc1ccc(-c2nc3cc(NC(=O)CN4CCCC4)ccc3o2)cc1 was tested. Which “activity change, negative = displacement” value did it give?
Its value is inactive: 1.34%.

How did the “activity change, negative = displacement” value turn out when O=C(Nc1ccncc1)c1c(Cl)cccc1Cl was run?
The value was inactive: -0.625%.

With COc1ccc(C(=O)NCC(=O)OCC(=O)c2ccc3c(c2)NC(=O)CO3)cc1 as the molecule, how does the Potency read?
The Potency was inconclusive: 12.6 µM [inhibitor, partial curve].

For Cc1cccc(/C=N/NC(=O)CNc2cccc3ccccc23)n1, which Potency is on record?
Its Potency is inconclusive: 50.1 µM [inhibitor, single point].

How did the “activity change, negative = displacement” value turn out when Cc1cc(C)c(Cn2c(=O)n(CCCC(=O)NCc3ccc4c(c3)OCO4)c(=O)c3sccc32)c(C)c1 was run?
The value was inactive: -1.2%.

COc1c(F)c(F)c(C(=O)Nc2ccc(N3CCN(C(C)=O)CC3)c(Cl)c2)c(F)c1F was tested. Which Potency did it give?
The Potency was inconclusive: 31.6 µM [inhibitor, partial curve].

How did the Potency turn out when Cc1ccc2nc(Cl)c3cc(C(=O)N4CCCCC4)sc3c2c1 was run?
The Potency was inconclusive: 25.1 µM [inhibitor, partial curve].

Which Potency does the source give for Cn1c(=O)c2c(-c3ccc(Cl)cc3)n(CCc3ccccc3)cc2n(C)c1=O here?
Its Potency is inconclusive: 15.8 µM [inhibitor, partial curve].

With C/C(=N/NC(=O)CNC(=O)c1cccnc1)c1ccc([N+](=O)[O-])cc1 as the molecule, how does the Potency read?
The Potency was inconclusive: 22.4 µM [inhibitor, partial curve].

Which “activity change, negative = displacement” value does the source give for C#CC(=O)N(c1ccc(OC)cc1OC)C(C(=O)NC1CCCC1)c1cccs1 (stereo not given) here?
Its value is inactive: -7.55%.

With COc1ccc(/C=C/C(=O)Nc2ccncc2)cc1OC as the molecule, how does the Potency read?
Its Potency is inconclusive: 31.6 µM [inhibitor, partial curve].

For COc1ccc(OC)c(S(=O)(=O)Nc2cccc(C(C)=O)c2)c1, which “activity change, negative = displacement” value is on record?
The value was inactive: 4.09%.

How did the Potency turn out when COc1ccc(OC(=O)c2nc(SCc3ccccc3C)ncc2Cl)cc1 was run?
Its Potency is inconclusive: 17.8 µM [inhibitor, partial curve].

How did the Potency turn out when Cc1ccccc1-c1nnc(SCCOc2ccc3c(C)cc(=O)oc3c2)o1 was run?
The Potency was inconclusive: 4.47 µM [inhibitor, full curve, poor fit].

How did the Potency turn out when COc1cc(NC(=O)C2CCN(S(=O)(=O)c3c(C)noc3/C=C/c3ccccc3F)CC2)cc(OC)c1OC was run?
The Potency was inconclusive: 10 µM [inhibitor, partial curve].

COCCNC(=S)NC(=O)CC12CC3CC(CC(C3)C1)C2 was tested. Which Potency did it give?
The Potency was inconclusive: 12.6 µM [inhibitor, partial curve].

With FC(F)(F)c1cccc(Nc2c3c(nc4ccc(Cl)cc24)CCC3)c1 as the molecule, how does the Potency read?
The Potency was inconclusive: 3.55 µM [inhibitor, full curve, poor fit].

How did the Potency turn out when CCc1ccc2c(c1)C(c1ccc(N3CCOCC3)cc1)=NNC(c1ccncc1)=N2 was run?
Its Potency is inconclusive: 20 µM [inhibitor, partial curve].

Which Potency does the source give for CCCCCN1C(C(=O)c2ccccc2)=C(OC(=O)CC)c2ccccc2S1(=O)=O here?
Its Potency is inconclusive: 35.5 µM [inhibitor, partial curve].

How did the Potency turn out when COc1ccc(Nc2oc(COc3ccc(Cl)cc3)nc2C#N)cc1 was run?
The Potency was inconclusive: 14.1 µM [inhibitor, partial curve].

Which “activity change, negative = displacement” value does the source give for COc1ccc(C2=NN(C(=O)c3ccncc3)C(c3ccccc3O)C2)cc1 (stereo not given) here?
Its value is inactive: -19.5%.

Which Potency does the source give for CC(=O)c1ccc(NC(=O)CSc2nnc(Cc3cccn3C)n2-c2ccc(F)cc2)cc1 here?
The Potency was inconclusive: 31.6 µM [inhibitor, single point].

Oc1cc2c(cc1C(c1ccc(Br)cc1)N1CCCC1)OCO2 (stereo not given) was tested. Which Potency did it give?
Its Potency is inconclusive: 22.4 µM [inhibitor, partial curve].

With CC1(C)Cc2c(c(N3CCOCC3)nc3sc(-c4ccc(C(=O)O)o4)c(N)c23)CO1 as the molecule, how does the “activity change, negative = displacement” value read?
The value was inactive: 139%.

Which Potency does the source give for FC(F)(F)c1cccc(NC(=S)NNC(=S)Nc2ccc(Cl)cc2)c1 here?
The Potency was inconclusive: 50.1 µM [inhibitor, single point].

Cc1ccc(C)c(Cn2cnc3c(cnn3C(C)(C)C)c2=O)c1 was tested. Which Potency did it give?
Its Potency is inconclusive: 35.5 µM [inhibitor, partial curve].

For Cc1ccc(C)c(NC(=O)C2CCN(S(=O)(=O)c3ccc4c(c3)NC(=O)CO4)CC2)c1, which Potency is on record?
Its Potency is inconclusive: 35.5 µM [inhibitor, partial curve].

CCCOc1ccc(C(=O)CCC(=O)OCC(=O)N2CC(=O)Nc3ccccc32)cc1 was tested. Which Potency did it give?
Its Potency is inconclusive: 28.2 µM [inhibitor, partial curve].

How did the Potency turn out when O=S(=O)(Nc1ccc2c(c1)OCCO2)c1ccc(Br)s1 was run?
Its Potency is inconclusive: 22.4 µM [inhibitor, partial curve].

With COc1cc(CNc2ccc3[nH]c(=O)[nH]c3c2)ccc1OCc1cccc(C)c1 as the molecule, how does the Potency read?
The Potency was inconclusive: 56.2 µM [inhibitor, single point].

O=C(NCc1ccc2c(c1)OCO2)c1nnc(Cc2ccc(F)cc2)o1 was tested. Which Potency did it give?
Its Potency is inconclusive: 15.8 µM [inhibitor, partial curve].

How did the “activity change, negative = displacement” value turn out when O=C(C1CCCN(S(=O)(=O)c2cccc3nsnc23)C1)N1CCN(c2cccc(Cl)c2)CC1 (stereo not given) was run?
The value was inactive: -5.33%.

For CN(Cc1c(F)cccc1Cl)C(=O)CNC(=O)c1cccs1, which “activity change, negative = displacement” value is on record?
The value was inactive: -21.6%.

With Cc1ccc2nc(-c3ccccn3)c(Nc3ccccc3C)n2c1 as the molecule, how does the Potency read?
The Potency was inconclusive: 44.7 µM [inhibitor, single point].

Which Potency does the source give for COc1ccccc1/C=N/NC(=O)CC(=O)Nc1ccc(Cl)c(Cl)c1 here?
Its Potency is inconclusive: 11.2 µM [inhibitor, partial curve].

With Cc1ccc2c(CC(=O)OC3CCOC3=O)coc2c1 (stereo not given) as the molecule, how does the Potency read?
The Potency was inconclusive: 35.5 µM [inhibitor, partial curve].

How did the Potency turn out when O=C(Nc1ccccc1F)C1(c2ccccc2)CC1(Cl)Cl (stereo not given) was run?
The Potency was inconclusive: 35.5 µM [inhibitor, single point].

For COc1ccc(N2C(=O)C3CC=C(Cl)CC3C2=O)cc1 (stereo not given), which Potency is on record?
Its Potency is inconclusive: 20 µM [inhibitor, partial curve].

With O=[N+]([O-])c1ncn(C23CC4CC(CC(C4)C2)C3)n1 as the molecule, how does the Potency read?
The Potency was inconclusive: 25.1 µM [inhibitor, partial curve].

Which Potency does the source give for CCOc1ccc(OCc2ccc(C(=O)N(C)c3ccccc3)o2)cc1 here?
Its Potency is inconclusive: 22.4 µM [inhibitor, partial curve].

Cc1ccc(CN2CCN(C(=O)CCC(=O)Nc3nnc(C(C)C)s3)CC2)c(C)c1 was tested. Which Potency did it give?
The Potency was inconclusive: 12.6 µM [inhibitor, partial curve].

For CCN1C(=O)C(O)(c2c[nH]c3ccccc23)c2cc(Br)ccc21 (stereo not given), which Potency is on record?
The Potency was inconclusive: 35.5 µM [inhibitor, single point].

How did the “activity change, negative = displacement” value turn out when O=C(/C=C/Nc1cccc(O)c1)c1ccccc1 was run?
Its value is inactive: -2.35%.

Which Potency does the source give for Cc1ccc(SCC(=O)O/N=C(\N)c2ccncc2)cc1 here?
Its Potency is inconclusive: 22.4 µM [inhibitor, partial curve].

COCCCn1nnnc1SCC(=O)N1c2ccccc2CC1C (stereo not given) was tested. Which Potency did it give?
Its Potency is inconclusive: 31.6 µM [inhibitor, partial curve].

For Cc1cccc(-c2nc3c(cnn3-c3ccccc3)c(=O)n2-c2ccc(Cl)cc2)c1, which Potency is on record?
Its Potency is inconclusive: 2.51 µM [inhibitor, full curve, poor fit].

Which Potency does the source give for CCCCc1ccc(NS(=O)(=O)c2c(C)n(C)c(=O)n(C)c2=O)cc1 here?
The Potency was inconclusive: 20 µM [inhibitor, partial curve].

Which Potency does the source give for Cc1cccc2nc(CSCc3ccco3)cn12 here?
Its Potency is inconclusive: 39.8 µM [inhibitor, single point].

For Cc1ccc(CN2CCN(CC3CC4C=CC3C4)CC2)cc1 (stereo not given), which “activity change, negative = displacement” value is on record?
Its value is inactive: -5.12%.

For CCn1c(=O)cc(SCC(=O)N2CCN(C(=O)c3ccco3)CC2)c2ccccc21, which “activity change, negative = displacement” value is on record?
The value was inactive: -17.2%.

How did the Potency turn out when Cn1c(C(O)c2ccc(Cl)cc2)nc(Cl)c1Cl (stereo not given) was run?
Its Potency is inconclusive: 25.1 µM [inhibitor, partial curve].

Which Potency does the source give for Cc1cc2cc(C(c3nnnn3Cc3ccco3)N3CCc4ccccc4C3)c(=O)[nH]c2cc1C (stereo not given) here?
Its Potency is inconclusive: 10 µM [inhibitor, partial curve].

With CCCOc1ccc(CNC(=S)N/N=C/c2ccc([N+](=O)[O-])cc2)cc1 as the molecule, how does the Potency read?
Its Potency is inconclusive: 35.5 µM [inhibitor, partial curve].

How did the Potency turn out when COc1cc(CNCCc2c[nH]c3ccccc23)ccc1OCc1ccccc1F was run?
The Potency was inconclusive: 15.8 µM [inhibitor, partial curve].

Cc1ccc2nc(N(CCCN(C)C)C(=O)COc3ccc(Cl)cc3)sc2c1 was tested. Which Potency did it give?
The Potency was inconclusive: 20 µM [inhibitor, partial curve].

For CN1CCN(CC(O)COc2ccc(C34CC5CC(CC(C5)C3)C4)cc2)CC1 (stereo not given), which Potency is on record?
The Potency was inconclusive: 11.2 µM [inhibitor, partial curve].

Which Potency does the source give for COc1ccc(NS(=O)(=O)c2ccc(S(=O)(=O)N3CCCC3)cc2)cc1 here?
Its Potency is inconclusive: 31.6 µM [inhibitor, partial curve].
